This is one part of the list. At the low end of the ranking the order means little.
The sequences below were run on T1, GST-NbGlk1(82-244) (assay: protein-binding microarray). Settings: NbGlk1 is a Golden2-like transcription factor of Nicotiana benthamiana; high values mean tight binding; most listed sequences are background and not binding sites; double strand, one strand shown.
T1 sequence: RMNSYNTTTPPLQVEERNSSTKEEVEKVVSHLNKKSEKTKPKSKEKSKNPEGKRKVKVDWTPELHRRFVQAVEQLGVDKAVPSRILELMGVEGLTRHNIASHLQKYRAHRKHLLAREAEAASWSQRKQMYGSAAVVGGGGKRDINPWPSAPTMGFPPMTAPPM
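Also: rank-based score ranging −0.5 to +0.5 with E above 0.45 taken as significant binding.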

Sequence | binding signal [E-score]
CACGGGCC | -0.245
CAGCGTCG | -0.121
ATCGTGGA | 0.273
ATCGGCTG | 0.0677
AAACTCGT | 0.00153
AAGCAGCC | -0.28
AATCACAG | 0.311
ATGCGAGG | -0.098
ACGCAGCC | -0.228
AATTTCAC | 0.193
AACGAGGC | -0.117
AGACGTGC | -0.198
ACGACAAC | 0.0296
ACGGGATC | 0.186
AGGTCTTG | -0.097
CACATGGG | -0.125
ATTTCACG | 0.242
CAAGCGCG | -0.00733
CAGCCCGA | -0.129
ATAGGGAT | 0.176
AATATCTC | 0.391
ACCATTTA | 0.0498
CACCACGG | -0.237
ATTTTTCG | 0.24
AAATCACA | 0.349

Sequence | binding signal [E-score]
AAGTGGAT | 0.163
AATCCCAA | 0.367
AACCGAGA | -0.00988
ACTCTACG | -0.137
ATACAAAA | 0.251
ACGCTAGG | -0.0799
ATTGGCTC | -0.234
ACCCTCGC | -0.286
ACCTAATA | 0.0256
AAAGTTCA | -0.0643
AAGTTACC | -0.0252
ATAGCCTC | 0.0553
AAAAAAAC | 0.0722
AAGAACTG | -0.0417
ACAGAATC | 0.454
AATCGACT | 0.263
ACGTCATG | -0.0674
AGGACTTA | -0.138
AGTTAATA | 0.1
AGATGCCA | 0.0155
CACGTATG | -0.106
ATAGGCTA | -0.0147
AGTGCCAC | -0.291
CAGAATAA | 0.149
AGCTGACA | -0.214

Sequence | binding signal [E-score]
CACGATGG | -0.0296
ACATTTAA | 0.0561
AACTGCCG | -0.106
AATAGTTG | 0.0542
AGGCACTG | -0.303
CACTATGG | -0.0907
ATGCTCTA | -0.178
CAATTGGA | 0.0269
ACAAAGCC | -0.0999
ACCCGCGC | -0.144
ATAGATAT | 0.394
AATCTACC | 0.404
AAATCATG | 0.332
ACTTACCT | -0.0614
ATTTGAGA | 0.161
AAATATGC | 0.234
AGTGGTTG | -0.108
AATCCTCA | 0.376
CAACCCCA | -0.0825
AAATTCGA | 0.219
AATATGTA | 0.131
AAAGAGGA | -0.0804
ACACCTGT | -0.117
CAGCACCG | -0.178
AAATTACT | 0.184

Sequence | binding signal [E-score]
AACCCGGA | 0.0146
ACGACTAA | -0.0352
ACTGGGTC | -0.288
AGCAGCTA | -0.222
AGATGGGC | -0.175
AGCCTCTG | -0.199
ACGCATAG | -0.117
ACGAGACG | -0.0818
AGAAGGCC | -0.259
ACAACGAC | -0.0241
AATGTCTA | 0.0312
ATGAGGAG | -0.119
ACCTAGAG | -0.218
ATGGAGGA | -0.117
AGATCCCT | 0.298
AGTGTGTA | 0.0709
AATTACGG | 0.251
ACAGCTGC | -0.27
ACCACTAT | -0.0442
AACAGTAT | 0.162
ATTGGAAG | 0.000771
AATCGATC | 0.26
ATGAGACC | -0.272
AAAGCAAT | 0.27
AAGGGAGT | -0.153

Sequence | binding signal [E-score]
ACCATTAA | 0.0382
AGCTCGCG | -0.227
ACGCGTGC | -0.0475
AGTGTTCG | -0.149
ACGTGAGG | -0.00877
AGTACAAC | -0.0232
AATACAGC | 0.0384
AAACTTGG | -0.179
AGAGACGA | -0.113
AGAACGGA | 0.0824
AGTCTAGG | -0.301
ATGAGATA | 0.209
AGACGACC | -0.348
ACAGCTAG | -0.108
AAACGGTG | -0.0203
ATCACGCG | 0.18
AACGCTTC | -0.036
ACCGCGCC | -0.0199
ACTCAAAT | 0.153
AGCTAATC | -0.0827
ATACCTGG | -0.0932
CACACAGG | -0.0882
CAGCGACA | -0.135
ACTGCACC | -0.211
AGATCGTC | 0.336

Sequence | binding signal [E-score]
AGCGCCAT | -0.238
ATTTTGGC | 0.186
AAGAGCTG | -0.178
AGAGACAG | -0.116
AGATTGTA | 0.332
AACGCATG | -0.168
ATAAGGCG | -0.0665
ACGAAGTC | -0.269
AAAAGCGG | -0.0996
AAATCCCG | 0.435
ACCGATGA | 0.0262
AGGGTAAG | -0.183
AGAGCCCC | -0.341
AGCGAAGC | -0.325
ATTCGACA | 0.18
AGGTACTG | -0.0565
AAGATGGG | 0.0243
ACCTTGTA | -0.0973
CACGGTCA | -0.146
ACTCTGAG | -0.105
ATTTGAAC | 0.183
AAGAATAC | 0.0588
AGCACATG | -0.0925
AGTGTCCA | -0.124
CACCAGGG | -0.193

Sequence | binding signal [E-score]
AGGTCCGG | -0.231
ACAAGTGA | 0.00336
ATCTAGGA | 0.307
AGGGCTAC | -0.175
ATCTCAAA | 0.337
ACTCTGTA | -0.0395
CACTAATG | -0.0191
ATTATAGA | 0.177
AGGCTTTA | -0.112
AATCTTGG | 0.386
AGCGTTGG | -0.139
CAACTGCA | -0.0599
ACCACGTG | -0.055
CAAACTGG | -0.155
ATATTAGG | 0.0684
AGCGCACC | -0.26
ACAAGGGA | -0.14
AAATTGGG | 0.00305
AGACAATA | 0.0353
AAAGCTTT | -0.192
AGTCCCAG | -0.168
AAGTGCCA | -0.23
AGCGGCGC | -0.221
AGCCCGCG | -0.243
CAGCACAG | -0.202

Sequence | binding signal [E-score]
AGCACAAG | -0.0517
AAGGATTG | 0.247
ATCCTTAG | 0.108
AATGCAGC | -0.0814
AAACATGA | 0.075
AATCAATC | 0.252
ATTTTGCC | 0.208
AGTAGTCC | -0.11
ATCCTGTA | 0.304
ACTACAAG | -0.0898
ATCACTAA | 0.0696
CAGATGGG | -0.194
ACCCCGAT | 0.199
ATGGGCTA | -0.0362
ACGAAGTG | -0.18
ATATCCTG | 0.373
AAATCATT | 0.223
AAGGGCAG | -0.22
ATGTCCGC | -0.216
ACCGGAAG | -0.265
ACGTTACG | 0.0571
AGACGAAT | 0.00696
AAACTCGC | -0.0527
ACCAGCGG | -0.232
AGAGCTAA | -0.0588

Sequence | binding signal [E-score]
AGGACATC | -0.14
ATGGCTCA | -0.0608
AGCAGAAA | -0.0794
ATCACTAC | 0.137
AAGCGAGT | -0.0603
AGGCGCAA | 0.0251
ACTCAATC | -0.00742
ATGTTTGA | 0.0264
ACCGTGAT | 0.143
AGCAATAA | -0.0445
AACGAGTC | -0.134
ATCATCGC | 0.0336
AATACTGG | 0.0731
CAATATTA | 0.162
CACAGAGA | 0.19
ACAATCGA | 0.201
ATACGACA | 0.125
ACCAAAGC | -0.153
ATCGGCTA | 0.0825
ACTGAGAA | 0.0409
AAAGGGGT | -0.171
AAGCAACT | -0.138
ACGAACCG | -0.109
AACAACCG | -0.175
AGTGCGAA | 0.0621

Sequence | binding signal [E-score]
ACGGTGTC | -0.219
ATAGTCAC | -0.156
AATACCGG | -0.0435
AAGCTGCA | -0.161
ACGACCTA | -0.151
AGACCTAT | -0.0733
ATAGTACA | 0.0403
AATTTCGG | 0.245
ACGCAGGA | -0.1
ATTCGGCG | 0.122
AATTTCCC | 0.192
AGAGCGAT | 0.122
AATTCACC | 0.0133
CACCTATG | -0.0688
AGTAGCTG | -0.212
AAGGTATT | 0.0288
AGCAAGGA | -0.0751
ACGTCATA | -0.0218
ATGGAGGC | -0.217
ATCTCGGC | 0.335
AAATTATA | 0.256
AAAGCATC | -0.0794
AAACGCCA | -0.162
CACCGAGC | -0.311
AGATAGCA | 0.0963

Sequence | binding signal [E-score]
ATAACGGC | 0.0591
AATCCCAT | 0.331
ATGCCGCC | -0.144
ATTACGCC | 0.162
ACCTGGCA | -0.117
AGCTCAAA | -0.146
AAGTCATG | -0.157
ACTGTTGA | -0.0965
CAAGATTC | 0.406
ATGTACCC | -0.167
AATAACCT | -0.027
AGACGCCA | -0.225
AACATTCA | -0.057
ATTCGGTC | 0.142
AATCACCC | 0.0957
AACCGATT | 0.196
AACCCGTT | -0.161
AATCAAAT | 0.297
AAAATATC | 0.406
AACGGACA | 0.0203
ACACTTGC | -0.189
ATAAGCTC | 0.000388
AAGACATG | -0.0617
AGAATGAT | 0.157
CAGAGTAG | -0.0285

Sequence | binding signal [E-score]
CACTTTTC | -0.0557
ATATGAAC | 0.145
AGTGTAAC | 0.0256
ACTGGTAT | -0.0291
AAGTGTAT | 0.0409
ACCGTGAG | -0.179
CACCTCAC | -0.0754
AGAGGCCC | -0.327
CAATAGTC | -0.0652
ATGGTGGA | -0.0971
ACTTGAGC | -0.208
CACGGTTC | -0.149
CAATGTCG | -0.023
AGTTCGGC | -0.223
CAACACGA | 0.0501
CACGTGCG | -0.0565
AATCATCA | 0.212
CAAGCTGG | -0.286
AAAAAAGA | 0.114
AGTTTGGG | -0.00283
ACTCGACA | -0.0957
ATACGTAA | 0.243
AACACTAT | 0.0545
ATTTGTGG | 0.122
AACATCCG | 0.0839

Sequence | binding signal [E-score]
AAGATCGT | 0.291
AGAACTAA | 0.0988
AAATACGC | 0.204
ATGTACTG | -0.0742
ATCTCCCA | 0.291
ATGAGCAC | 0.00769
AGTTTCTG | 0.000734
ACTCCAGG | -0.229
ACCGCTCT | -0.102
ACGTATTC | 0.0876
CACAGTAC | -0.113
ATGAGGTC | -0.181
ACCGACAC | -0.0628
AAGCCCGC | -0.361
AGTTAGAG | 0.0464
CACTTCAC | 0.118
AACTACAA | 0.077
ACATAGAC | 0.0927
AAAAGACA | 0.0173
AACAAGAA | 0.119
AGGACACC | -0.157
AAGGGCGA | -0.132
CAATCTCA | 0.329
ACCCCTTC | -0.275
CAGAACTA | 0.143

Sequence | binding signal [E-score]
AACCTAGA | -0.0363
ACGGGTCT | -0.32
AGTTGAAC | -0.158
ACAATGCT | -0.0822
ATTTAGGC | 0.0464
ATGAGCGG | -0.21
CACCGAAC | -0.186
AGGGTATC | 0.307
ACTGTCGA | -0.126
CACCAGAG | -0.0602
AAGGCTCA | -0.287
ATCATGAG | 0.137
AAAATGAT | 0.142
AATGAGTG | -0.119
ACACTCAG | -0.116
AAGCGAAG | -0.169
ATACGCAA | 0.311
AATGTACA | 0.0592
ATTTTGTG | 0.323

Source: PMC5836133
